The campaign covered roughly 76,000 compounds. About 1,900 (2.5%) were called active. Inconclusive results, whose numbers are uncertain, are shown with a selection of clear calls. Calls come from the whole dose curve; as a rule, active = well fitted inhibition curve with a large enough effect; inconclusive = small, poorly fitted or top-dose-only effect; inactive = flat fitted curve, though single readings scatter. A potency beside an inconclusive call is a rough fit, not a confirmed value.
Molecular target: Luciferin 4-monooxygenase (Photinus pyralis) (UniProt P08659)
Assay: Firefly luciferase inhibition profiling of diverse chemical library using quantitative high-throughput screening; note: nearly all actives have a fitted effect of over 65% in size
Conditions: purified P. pyralis luciferase, luminescence, biochemical; series mostly up to 115 µM
Summary of the method: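 Luminescence read by CCD imager after adding enzyme (10nM final) to wells holding compound, titrated in qHTS. Substrates 10uM each D-luciferin and ATP; buffer 50mM Tris acetate pH 7.5, 10mM Mg acetate, Tween-20, BSA.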
Potency is the fitted concentration of half-maximal effect; tags give direction and shape of the fitted curve.

Sequence of UniProt P08659 (P08659 whole entry, looked up): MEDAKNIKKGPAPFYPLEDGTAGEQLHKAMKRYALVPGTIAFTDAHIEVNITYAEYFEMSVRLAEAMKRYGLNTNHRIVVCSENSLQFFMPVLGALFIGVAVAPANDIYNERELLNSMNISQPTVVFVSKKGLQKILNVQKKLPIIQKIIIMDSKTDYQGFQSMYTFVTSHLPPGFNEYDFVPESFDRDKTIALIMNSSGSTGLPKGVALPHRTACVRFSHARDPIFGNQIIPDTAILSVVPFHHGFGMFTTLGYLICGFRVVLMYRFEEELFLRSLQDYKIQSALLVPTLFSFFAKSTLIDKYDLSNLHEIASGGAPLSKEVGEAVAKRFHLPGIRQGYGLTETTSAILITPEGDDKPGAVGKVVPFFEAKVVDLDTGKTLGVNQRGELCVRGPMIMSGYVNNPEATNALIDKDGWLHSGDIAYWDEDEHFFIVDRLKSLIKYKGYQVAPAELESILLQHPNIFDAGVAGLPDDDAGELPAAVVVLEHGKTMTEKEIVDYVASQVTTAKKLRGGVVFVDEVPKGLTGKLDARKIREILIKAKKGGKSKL

SMILES	Potency
COCC(=O)N[C@@H]1C=C[C@@H](c2c(C)nn(-c3ccc(C(C)(C)C)cc3)c2C)C1	inconclusive: 63.1 µM [inhibitor, full curve]
CN(Cc1ccccc1)C1(C(=O)NC2CCS(=O)(=O)C2)Cc2ccccc2C1 (stereo not given)	inconclusive: 50.1 µM [inhibitor, partial curve]
COc1ccc(-c2n[nH]c3c2CC(=O)N(CC2CCOCC2)C3)cc1F	inactive
CC(C)CN1C(=O)COC[C@@H]1[C@H](O)c1ccc(NC(=O)c2ccc(F)cc2)cc1	inconclusive: 70.8 µM [inhibitor, partial curve]
O[C@@H]1C[C@@H](c2nc(-c3ccccn3)no2)N(Cc2cccs2)C1	active: 35.5 µM
COc1ccc(C(=O)N2CCC3(CC2)N=C(c2ccc(Br)cc2)NO3)cc1OC	inactive
O=C(Nc1ccccc1F)N1CC(Oc2ccc(-c3nc(-c4ccccc4)no3)cc2)C1	inconclusive: 17.8 µM [inhibitor, partial curve]
Cc1onc(C(=O)NC2CCc3nn(C)c(=O)n3CC2)c1COc1ccccc1 (stereo not given)	inactive
c1cc(-c2ccc3c(c2)OCCCO3)n2ncnc2n1	inconclusive: 50.1 µM [inhibitor, partial curve]
Cc1ccc(CCNC(=O)c2cc3c(=O)[nH]c(C)cn3n2)cc1	inconclusive: 50.1 µM [inhibitor, partial curve, poor fit]
O=C(Cc1ccsc1)N1CCC(n2cc(-c3nc(-c4ccccc4)no3)nn2)C1 (stereo not given)	active: 56.2 µM
CC(=O)Nc1cccc(C(=O)NCCn2ccn3nc(-c4ccc(F)cc4)cc3c2=O)c1	active: 20 µM
O=C(O)COc1ccc(-c2nccc3c2C(=O)N(Cc2c[nH]c4ccccc24)CC(COc2ccc(F)cc2F)O3)cc1 (stereo not given)	active: 44.7 µM
C[C@]1(CO)[C@H]2Cc3sc(NC(=O)c4ccc(F)cc4)nc3[C@@H](CC(=O)O)[C@]2(C)CC[C@H]1O	inactive
Cc1cccnc1CN(C)C(=O)c1ccc2nc(-c3ccccc3)cn2c1	inconclusive: 70.8 µM [inhibitor, single point]
COCCN1C(=O)CS(=O)(=O)C12CCN(C(=O)c1cccc(OC)c1C)CC2	inactive
CN1Cc2nc(-c3cnn(C)c3)ccc2OCC1=O	inactive
Cc1cc(C(=O)Nc2ccc(C(O)[C@H]3COCC(=O)N3Cc3ccc(C(F)(F)F)cc3)cc2)n(C)n1 (stereo not given in full)	inactive
CN(C)[C@@H]1CN(C(=O)C2CC2)CC[C@@H]1CO	inconclusive: 44.7 µM [inhibitor, partial curve, poor fit]
Cc1nc2cccnc2n1CC1CCCN(C(=O)Nc2ccccc2C(F)(F)F)C1 (stereo not given)	inactive
CCC(CC)C(=O)Nc1ccc([C@@H](O)[C@H]2COCC(=O)N2Cc2ccccc2OC)cc1	inactive
Cc1ccc(-c2noc([C@@H]3C[C@@H](O)CN3CC3CC3)n2)cc1F	active: 50.1 µM
COc1cccc(CNC(=O)c2cccc3c2CCN3C(=O)c2ccc(F)cc2)c1	inconclusive: 44.7 µM [inhibitor, partial curve]
COc1ccccc1C(=O)NC[C@H]1Cn2c(-c3ccc4c(c3)OCCO4)cnc2CO1	inconclusive: 89.1 µM [inhibitor, partial curve, poor fit]

SMILES	Potency
Cc1nccn1-c1ccc(CNC(=O)C(c2ccc(F)cc2)N(C)C)cc1 (stereo not given)	inactive
C[C@@H]1C(=O)O[C@H]2[C@H]1CC[C@@]1(C)Cc3sc(Nc4ccc(C(=O)O)cc4)nc3[C@@H](C)[C@H]21	active: 1 µM
COc1ccc(-c2noc([C@@H]3C[C@@H](O)CN3C3CCN(C)CC3)n2)cc1	active: 70.8 µM
COc1ccc(-c2cc(-c3ccc4cn[nH]c4c3)cn3cncc23)cc1	inconclusive: 100 µM [inhibitor, partial curve, poor fit]
O=C(c1cc(F)ccc1Cl)N1CCC(n2cc(-c3nc(-c4ccccc4)no3)nn2)C1 (stereo not given)	inconclusive: 50.1 µM [inhibitor, partial curve]
O=C(Nc1ccc([C@@H](O)[C@H]2COCC(=O)N2CCCc2ccccc2)cc1)c1ccco1	inconclusive: 70.8 µM [inhibitor, partial curve]
Cc1ccc(-n2nc3n(c2=O)CCN(C(=O)c2ccccc2F)C3)cc1	inconclusive: 50.1 µM [inhibitor, partial curve]
O=C(c1n[nH]c2ccccc12)N1CCC(OCCOc2ccc(F)cc2)CC1	inconclusive: 39.8 µM [inhibitor, partial curve, poor fit]
O=C(O)c1ccc(CN2CCC[C@H]2c2nc(-c3ccc(F)cn3)no2)cc1	inconclusive: 39.8 µM [inhibitor, partial curve, poor fit]
COc1ccc(CN2CCNc3cc(-c4ccnc(C)c4)ncc3C2)cc1	inconclusive: 44.7 µM [inhibitor, partial curve]
CCCCS(=O)(=O)N1CCC(F)(c2nc(-c3ccccc3)no2)CC1	inactive
Cc1ccccc1Cn1cc(C(=O)N2CCN(C3CCCCC3)C(=O)C2)nn1	inactive
O=C(N[C@H]1CCN2C(=O)c3cc(-c4ccccc4)ccc3NC(=O)[C@H]12)c1cccs1	inactive
CCc1nc(-c2c3n(c(=O)n(Cc4cccc(C#N)c4)c2=O)CCCCC3)no1	inactive
CCCNC(=O)CCC1CCN(S(=O)(=O)c2ccccc2)CC1	inactive
O[C@@H]1C[C@@H](c2nc(-c3ccc(F)cc3)no2)N(Cc2ccncc2)C1	active: 63.1 µM
Cc1ccc(C2=NC3(CCN(C(=O)c4ccc(F)cc4F)CC3)ON2)cc1	inconclusive: 44.7 µM [inhibitor, partial curve]
COc1ccc(C2Cn3cnc(-c4nc(-c5ccsc5)no4)c3CO2)cc1 (stereo not given)	inconclusive: 39.8 µM [inhibitor, partial curve]
COc1cccc(-c2cc3c(ccn3CC3CCN(C)CC3)c(N3CCOCC3)n2)c1	inactive
CCn1cc(-c2ccc(C)cc2)cc1C(=O)NCC1CCCO1 (stereo not given)	inconclusive: 22.4 µM [inhibitor, full curve]
CN(C)c1cccc(C(=O)N2CCC3(CC2)NC(=O)N(c2cccc(Cl)c2)N3)c1	inconclusive: 44.7 µM [inhibitor, partial curve]
O=C(NCCCN1CCCC1=O)c1ccc(-c2ccc(N3CCSCC3)nc2)cc1	active: 39.8 µM
COc1ccc(OCc2nc(C3CN(C(=O)Nc4cccc(F)c4)C3)no2)cc1	inconclusive: 35.5 µM [inhibitor, partial curve]
CN1[C@@H](CCC(=O)N2CCN(c3ccccc3)CC2)CNC(=O)[C@@H]2[C@H]1CCN2Cc1ccccc1	inactive

SMILES	Potency
O=C1NCCCCCCN(Cc2ccncc2)[C@@H]2CN(Cc3ccncc3)CC[C@H]12	inactive
Cc1ccccc1NC(=O)N1C[C@@H](F)C[C@H]1C(=O)N1CCc2ccccc2C1	inactive
Cc1ccccc1CC(=O)N1CCCn2cc(-c3cccc(C#N)c3)nc21	inconclusive: 50.1 µM [inhibitor, partial curve]
COc1ccc(-c2noc(-c3cccn3CC(=O)N3CCN(c4ccccc4OC)CC3)n2)cc1F	inconclusive: 44.7 µM [inhibitor, partial curve]
COc1ccc(C2=NOC3(CCN([S+](=O)([O-])c4cccs4)C3)C2)cc1 (stereo not given)	active: 5.62 µM
CN1C[C@@H](NC(=O)Nc2ccccc2)C[C@H]1c1nc(Cc2ccccc2)no1	active: 44.7 µM
CCN1CC(c2nc(-c3ccc(-n4nc(C)cc4N)cc3)no2)CCC1=O (stereo not given)	inactive
COc1cccc(CNC(=O)N2c3ccccc3CC2c2nc(C3CC3)no2)c1 (stereo not given)	inconclusive: 39.8 µM [inhibitor, partial curve]
Cc1ccc(NC(=O)N2CCC(N3CC4CC(C3)[C@H]3CCCC(=O)N3C4)CC2)cc1 (stereo not given in full)	inactive
Cc1csc(NC(=O)c2nc3c(o2)CCN(Cc2ccccc2)CC3)n1	inconclusive: 22.4 µM [inhibitor, full curve, poor fit]
CCOCC1(C)COc2ccc(C(=O)NCCc3ccccc3)cc2N1 (stereo not given)	active: 22.4 µM
COCCOC1CCOC2(CCN(C(=O)Nc3ccccc3F)CC2)C1 (stereo not given)	inconclusive: 44.7 µM [inhibitor, partial curve]
CC(=O)N[C@H]1CC[C@]2(C)CCC([C@H](C)C(=O)N3CCC(C)CC3)[C@H](O)[C@H]2[C@@H]1C (stereo not given in full)	inactive
Cc1ccncc1C(=O)NCC(=O)N1CCCCCNC(=O)CC1c1ccccc1 (stereo not given)	inactive
O=c1n(-c2ccncc2)nc2n1CCN(Cc1ccsc1)C2	inconclusive: 100 µM [inhibitor, partial curve, poor fit]
COc1ccc(N2CCN(C3CCCN(CC=C(C)C)C3)CC2)cc1 (stereo not given)	inactive
Fc1ccccc1-c1noc(-c2nc(-c3ccc4c(c3)OCO4)no2)n1	inconclusive: 14.1 µM [inhibitor, partial curve, poor fit]
COc1cccc(C2Cn3nnc(-c4nc(-c5ccccc5F)no4)c3CO2)c1 (stereo not given)	inconclusive: 50.1 µM [inhibitor, partial curve]
COCCCNc1cc(-c2ccc(Cl)cc2)nc2c(C)noc12	inconclusive: 112 µM [inhibitor, partial curve, poor fit]
COCc1nc2nc(-c3ccccc3)c(Nc3ccc(F)c(OC)c3)cc2n1C	inconclusive: 63.1 µM [inhibitor, partial curve]
COc1cccc(-c2ncc3c(n2)OCCN(Cc2ccccc2)C3=O)c1	active: 2.82 µM
COCCOc1ccc(-c2noc([C@@H]3CCCN3Cc3cccnc3)n2)cn1	inconclusive: 112 µM [inhibitor, partial curve, poor fit]
